Measurements as given in the CheMixHub ionic liquid set.
The source gives many values for each of these; only a part stands here.

Assay: xn = mol fraction of the nth substance listed
Settings: 100 kPa

C[C@H](N)C(=O)[O-].C[N+](C)(C)CCO + CCO
Settings | viscosity [mPa·s]
298.81 K, x1 = 0.8027 | 730
298.81 K, x1 = 0.894 | 1125
299.98 K, x1 = 0.1013 | 3.69
299.98 K, x1 = 0.2012 | 11.6
299.98 K, x1 = 0.2903 | 27.9
299.98 K, x1 = 0.3782 | 58
299.98 K, x1 = 0.5527 | 176
299.98 K, x1 = 0.6071 | 243
299.98 K, x1 = 0.7056 | 440
299.98 K, x1 = 0.8027 | 670
299.98 K, x1 = 0.894 | 1024
300.27 K, x1 = 1 | 1538
300.61 K, x1 = 1 | 1681
301.16 K, x1 = 0.1013 | 3.55
301.16 K, x1 = 0.2012 | 11
301.16 K, x1 = 0.2903 | 26.7
301.16 K, x1 = 0.3782 | 56
301.16 K, x1 = 0.5527 | 165
301.16 K, x1 = 0.6071 | 224
301.16 K, x1 = 0.7056 | 403
301.16 K, x1 = 0.8027 | 610
301.16 K, x1 = 0.894 | 930
302.33 K, x1 = 0.1013 | 3.44
302.33 K, x1 = 0.2012 | 10.6
302.33 K, x1 = 0.2903 | 25.8
302.33 K, x1 = 0.3782 | 55
302.33 K, x1 = 0.5527 | 157
302.33 K, x1 = 0.6071 | 207
302.33 K, x1 = 0.7056 | 373
302.33 K, x1 = 0.8027 | 570
302.33 K, x1 = 0.894 | 850
302.34 K, x1 = 1 | 1310
302.66 K, x1 = 1 | 1421
303.51 K, x1 = 0.1013 | 3.32
303.51 K, x1 = 0.2012 | 10.2
303.51 K, x1 = 0.2903 | 25
303.51 K, x1 = 0.3782 | 52
303.51 K, x1 = 0.5527 | 149
303.51 K, x1 = 0.6071 | 192
303.51 K, x1 = 0.7056 | 347
303.51 K, x1 = 0.8027 | 520
303.51 K, x1 = 0.894 | 780
304.41 K, x1 = 1 | 1119
304.69 K, x1 = 0.1013 | 3.22
304.69 K, x1 = 0.2012 | 9.9
304.69 K, x1 = 0.2903 | 24
304.69 K, x1 = 0.3782 | 50
304.69 K, x1 = 0.5527 | 138
304.69 K, x1 = 0.6071 | 181
304.69 K, x1 = 0.7056 | 320
304.69 K, x1 = 0.8027 | 480
304.69 K, x1 = 0.894 | 720
304.72 K, x1 = 1 | 1206
305.86 K, x1 = 0.1013 | 3.12
305.86 K, x1 = 0.2012 | 9.6
305.86 K, x1 = 0.2903 | 23.1
305.86 K, x1 = 0.3782 | 47
305.86 K, x1 = 0.5527 | 129
305.86 K, x1 = 0.6071 | 179
305.86 K, x1 = 0.7056 | 296
305.86 K, x1 = 0.8027 | 440
305.86 K, x1 = 0.894 | 660
306.48 K, x1 = 1 | 960
306.78 K, x1 = 1 | 1030
307.04 K, x1 = 0.1013 | 3.02
307.04 K, x1 = 0.2012 | 9.4
307.04 K, x1 = 0.2903 | 22.6
307.04 K, x1 = 0.3782 | 46
307.04 K, x1 = 0.5527 | 121
307.04 K, x1 = 0.6071 | 170
307.04 K, x1 = 0.7056 | 276
307.04 K, x1 = 0.8027 | 410
307.04 K, x1 = 0.894 | 610
308.21 K, x1 = 0.1013 | 2.93
308.21 K, x1 = 0.5527 | 113
308.21 K, x1 = 0.6071 | 159
308.21 K, x1 = 0.8027 | 379
308.22 K, x1 = 0.2012 | 9.1
308.22 K, x1 = 0.2903 | 22.8
308.22 K, x1 = 0.3782 | 45
308.22 K, x1 = 0.7056 | 256
308.22 K, x1 = 0.894 | 560
308.54 K, x1 = 1 | 830
308.84 K, x1 = 1 | 880
310.61 K, x1 = 1 | 720
310.9 K, x1 = 1 | 760
312.67 K, x1 = 1 | 630
312.95 K, x1 = 1 | 660
314.74 K, x1 = 1 | 550
315.01 K, x1 = 1 | 570
316.82 K, x1 = 1 | 480
317.07 K, x1 = 1 | 500
318.91 K, x1 = 1 | 420
319.13 K, x1 = 1 | 440
321.04 K, x1 = 1 | 374
321.19 K, x1 = 1 | 387
323.2 K, x1 = 1 | 337
323.25 K, x1 = 1 | 342

C[C@H](N)C(=O)[O-].C[N+](C)(C)CCO + CCCO
Settings | viscosity [mPa·s]
298.81 K, x1 = 0.9049 | 1069
299.98 K, x1 = 0.0997 | 5.9
299.98 K, x1 = 0.2007 | 15.4
299.98 K, x1 = 0.2998 | 31.7
299.98 K, x1 = 0.3915 | 63
299.98 K, x1 = 0.506 | 130
299.98 K, x1 = 0.6047 | 237
299.98 K, x1 = 0.6939 | 381
299.98 K, x1 = 0.7915 | 590
299.98 K, x1 = 0.9049 | 970
300.27 K, x1 = 1 | 1538
300.61 K, x1 = 1 | 1681
301.15 K, x1 = 0.0997 | 5.7
301.16 K, x1 = 0.2007 | 14.8
301.16 K, x1 = 0.2998 | 30.2
301.16 K, x1 = 0.3915 | 59
301.16 K, x1 = 0.506 | 122
301.16 K, x1 = 0.6047 | 219
301.16 K, x1 = 0.6939 | 352
301.16 K, x1 = 0.7915 | 540
301.16 K, x1 = 0.9049 | 890
302.33 K, x1 = 0.0997 | 5.5
302.33 K, x1 = 0.2007 | 14.1
302.33 K, x1 = 0.2998 | 28.6
302.33 K, x1 = 0.3915 | 56
302.33 K, x1 = 0.506 | 114
302.33 K, x1 = 0.6047 | 202
302.33 K, x1 = 0.6939 | 324
302.33 K, x1 = 0.7915 | 490
302.33 K, x1 = 0.9049 | 810
302.34 K, x1 = 1 | 1310
302.66 K, x1 = 1 | 1421
303.51 K, x1 = 0.0997 | 5.4
303.51 K, x1 = 0.2007 | 13.5
303.51 K, x1 = 0.2998 | 27.4
303.51 K, x1 = 0.3915 | 52
303.51 K, x1 = 0.506 | 107
303.51 K, x1 = 0.6047 | 187
303.51 K, x1 = 0.6939 | 302
303.51 K, x1 = 0.7915 | 460
303.51 K, x1 = 0.9049 | 740
304.41 K, x1 = 1 | 1119
304.68 K, x1 = 0.0997 | 5.3
304.68 K, x1 = 0.2007 | 12.9
304.68 K, x1 = 0.2998 | 26.1
304.68 K, x1 = 0.3915 | 49
304.68 K, x1 = 0.506 | 101
304.68 K, x1 = 0.9049 | 680
304.69 K, x1 = 0.6047 | 173
304.69 K, x1 = 0.6939 | 280
304.69 K, x1 = 0.7915 | 420
304.72 K, x1 = 1 | 1206
305.86 K, x1 = 0.0997 | 5.1
305.86 K, x1 = 0.2007 | 12.3
305.86 K, x1 = 0.2998 | 24.7
305.86 K, x1 = 0.3915 | 46
305.86 K, x1 = 0.506 | 94
305.86 K, x1 = 0.6047 | 159
305.86 K, x1 = 0.6939 | 260
305.86 K, x1 = 0.7915 | 389
305.86 K, x1 = 0.9049 | 620
306.48 K, x1 = 1 | 960
306.78 K, x1 = 1 | 1030
307.04 K, x1 = 0.0997 | 4.9
307.04 K, x1 = 0.2007 | 11.8
307.04 K, x1 = 0.2998 | 23.6
307.04 K, x1 = 0.3915 | 44
307.04 K, x1 = 0.506 | 89
307.04 K, x1 = 0.6047 | 148
307.04 K, x1 = 0.6939 | 243
307.04 K, x1 = 0.7915 | 362
307.04 K, x1 = 0.9049 | 570
308.21 K, x1 = 0.0997 | 4.8
308.21 K, x1 = 0.2007 | 11.2
308.21 K, x1 = 0.2998 | 22.5
308.21 K, x1 = 0.3915 | 41.1
308.21 K, x1 = 0.506 | 84
308.21 K, x1 = 0.6047 | 137
308.21 K, x1 = 0.9049 | 530
308.22 K, x1 = 0.6939 | 228
308.22 K, x1 = 0.7915 | 336
308.54 K, x1 = 1 | 830
308.84 K, x1 = 1 | 880
310.61 K, x1 = 1 | 720
310.9 K, x1 = 1 | 760
312.67 K, x1 = 1 | 630
312.95 K, x1 = 1 | 660
314.74 K, x1 = 1 | 550
315.01 K, x1 = 1 | 570
316.82 K, x1 = 1 | 480
317.07 K, x1 = 1 | 500
318.91 K, x1 = 1 | 420
319.13 K, x1 = 1 | 440
321.04 K, x1 = 1 | 374
321.19 K, x1 = 1 | 387
323.2 K, x1 = 1 | 337
323.25 K, x1 = 1 | 342
